Reference: the supplement of paper PMC4967469
A lower IC50 marks a more sensitive line; where the fit passes the top or lowest dose, that dose stands as a limit. The AUC spans the tested range (256-fold, ending at the top dose) of the same fit; the more sensitive the line, the further below 1. For some of these results: The top dose, if marked as inferred, comes from the curve model; the source does not state it. For some of these results: Where an entry number is given, a second screen of the drug exists; the two often differ.

Tests used:
Experiment in all cases: Viability of human cancer cell lines after 72 h of drug (GDSC screen)
[1] = compound: CN1CCN(c2ccc([N+](=O)[O-])c3no[n+]([O-])c23)CC1 [NSC-207895]; conditions: top dose 20 µM; top dose inferred
Experimental: (§1)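 Human cancer cell lines in 384-well plates, medium with 10% serum, drug for 72 h over a 256-fold dose range (nine 2-fold or five 4-fold steps up to the top dose). Adherent lines were fixed and stained with the nucleic acid dye Syto60, suspension lines read with resazurin; signal relative to control wells, capped at 0 and 100%. One two-parameter sigmoid per drug and line, fitted in a mixed model over all curves with the slope shared within a line.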

[2] = compound: CC(=O)O[C@@]12CO[C@@H]1C[C@H](O)[C@@]1(C)C(=O)[C@H](O)C3=C(C)[C@@H](OC(=O)[C@H](O)[C@@H](NC(=O)OC(C)(C)C)c4ccccc4)C[C@@](O)([C@@H](OC(=O)c4ccccc4)[C@H]21)C3(C)C [Docetaxel]; conditions: top dose 0.0125 µM
Experimental: as §1

[3] = compound: C[C@]1(O)C[C@@H](c2nc(-c3ccc4ccc(-c5ccccc5)nc4c3)c3c(N)nccn32)C1 [OSI-906]; conditions: top dose 2.56 µM; top dose inferred
Experimental: as §1

[4] = compound: Cc1ccc(C(=O)N(CCCN)[C@@H](c2nc3cc(Cl)ccc3c(=O)n2Cc2ccccc2)C(C)C)cc1 [SB-715992]; conditions: top dose 0.128 µM; top dose inferred
Experimental: as §1

[5] = compound: COC(=O)[C@H](CCSC)NC(=O)c1ccc(NC[C@@H](N)CS)cc1-c1ccccc1 [FTI-277]; conditions: top dose 1.024 µM; top dose inferred
Experimental: as §1

[6] = compound: CC1(C)CNc2cc(NC(=O)c3cccnc3NCc3ccncc3)ccc21 [AMG-706]; conditions: top dose 2 µM; top dose inferred
Experimental: as §1

[7] = compound: COCC[n+]1c2c(n(Cc3cnccn3)c1C)C(=O)c1ccccc1C2=O [YM155]; conditions: top dose 5.12 µM
Experimental: as §1

[8] = compound: Cc1sc2c(c1C)C(c1ccc(Cl)cc1)=N[C@@H](CC(=O)OC(C)(C)C)c1nnc(C)n1-2 [JQ1]
Experimental: as §1

[9] = compound: O=C(/C=C/c1cccc(S(=O)(=O)Nc2ccccc2)c1)NO [Belinostat]; conditions: top dose 20 µM; top dose inferred
Experimental: as §1

[10] = compound: CCOc1nc(NC(=O)Cc2cc(OC)ccc2OC)cc(N)c1C#N [JNK Inhibitor VIII]; conditions: top dose 10 µM; top dose inferred
Experimental: as §1

[11] = compound: c1ccc2c(CCNc3ccc(Nc4ccncc4)cc3)c[nH]c2c1 [JNJ-26854165]; conditions: top dose 10 µM
Experimental: as §1

[12] = top dose 1 µM, screen: GDSC drug entry 1218, top dose inferred
[13] = top dose 2.56 µM, screen: GDSC drug entry 163

CHSA0011 (chondrosarcoma, adherent)
AUC [1]: 0.964
IC50 [1]: > 20 µM
AUC [2]: 0.905
IC50 [2]: > 0.0125 µM
AUC [3]: 0.98
IC50 [3]: > 2.56 µM
AUC [4]: 0.979
IC50 [4]: > 0.128 µM
AUC [5]: 0.98
IC50 [5]: > 1.02 µM
AUC [6]: 0.675
IC50 [6]: 0.473 µM
AUC [7]: 0.13
IC50 [7]: < 0.02 µM
AUC [8, 12]: 0.974
IC50 [8, 12]: > 1 µM
AUC [8, 13]: 0.838
IC50 [8, 13]: > 2.56 µM
AUC [9]: 0.849
IC50 [9]: > 20 µM
AUC [10]: 0.924
IC50 [10]: > 10 µM

COLO-783 (melanoma, adherent)
AUC [1]: 0.99
IC50 [1]: > 20 µM
AUC [2]: 0.921
IC50 [2]: > 0.0125 µM
AUC [3]: 0.982
IC50 [3]: > 2.56 µM
AUC [4]: 0.982
IC50 [4]: > 0.128 µM
AUC [5]: 0.986
IC50 [5]: > 1.02 µM
AUC [6]: 0.907
IC50 [6]: > 2 µM
AUC [7]: 0.651
IC50 [7]: 0.825 µM
AUC [8, 12]: 0.967
IC50 [8, 12]: > 1 µM
AUC [8, 13]: 0.929
IC50 [8, 13]: > 2.56 µM
AUC [9]: 0.762
IC50 [9]: 6.89 µM
AUC [10]: 0.959
IC50 [10]: > 10 µM

G-292 Clone A141B1 (osteosarcoma, adherent)
AUC [1]: 0.953
IC50 [1]: > 20 µM
AUC [2]: 0.83
IC50 [2]: > 0.0125 µM
AUC [3]: 0.813
IC50 [3]: > 2.56 µM
AUC [4]: 0.967
IC50 [4]: > 0.128 µM
AUC [5]: 0.867
IC50 [5]: > 1.02 µM
AUC [6]: 0.938
IC50 [6]: > 2 µM
AUC [7]: 0.3
IC50 [7]: 0.0615 µM
AUC [8, 12]: 0.969
IC50 [8, 12]: > 1 µM
AUC [8, 13]: 0.633
IC50 [8, 13]: 0.465 µM
AUC [9]: 0.855
IC50 [9]: > 20 µM
AUC [10]: 0.952
IC50 [10]: > 10 µM

HCC1937 (breast, adherent)
AUC [1]: 0.985
IC50 [1]: > 20 µM
AUC [2]: 0.853
IC50 [2]: 0.0122 µM
AUC [3]: 0.974
IC50 [3]: > 2.56 µM
AUC [4]: 0.918
IC50 [4]: > 0.128 µM
AUC [5]: 0.983
IC50 [5]: > 1.02 µM
AUC [6]: 0.926
IC50 [6]: > 2 µM
AUC [7]: 0.112
IC50 [7]: < 0.02 µM
AUC [8, 12]: 0.967
IC50 [8, 12]: > 1 µM
AUC [8, 13]: 0.887
IC50 [8, 13]: > 2.56 µM
AUC [9]: 0.522
IC50 [9]: 1.44 µM
AUC [10]: 0.967
IC50 [10]: > 10 µM

HCC-78 (lung adenocarcinoma, adherent)
AUC [1]: 0.801
IC50 [1]: 11.7 µM
AUC [2]: 0.829
IC50 [2]: 0.00967 µM
AUC [3]: 0.982
IC50 [3]: > 2.56 µM
AUC [4]: 0.763
IC50 [4]: 0.0538 µM
AUC [5]: 0.983
IC50 [5]: > 1.02 µM
AUC [6]: 0.929
IC50 [6]: > 2 µM
AUC [7]: 0.047
IC50 [7]: < 0.02 µM
AUC [8, 12]: 0.948
IC50 [8, 12]: > 1 µM
AUC [8, 13]: 0.963
IC50 [8, 13]: > 2.56 µM
AUC [9]: 0.336
IC50 [9]: 0.402 µM
AUC [10]: 0.933
IC50 [10]: > 10 µM

HSC-2 (head and neck, adherent)
AUC [1]: 0.989
IC50 [1]: > 20 µM
AUC [2]: 0.497
IC50 [2]: 0.000765 µM
AUC [3]: 0.983
IC50 [3]: > 2.56 µM
AUC [4]: 0.952
IC50 [4]: > 0.128 µM
AUC [5]: 0.952
IC50 [5]: > 1.02 µM
AUC [6]: 0.983
IC50 [6]: > 2 µM
AUC [7]: 0.022
IC50 [7]: < 0.02 µM
AUC [8, 12]: 0.983
IC50 [8, 12]: > 1 µM
AUC [8, 13]: 0.509
IC50 [8, 13]: 0.169 µM
AUC [9]: 0.612
IC50 [9]: 2.47 µM
AUC [10]: 0.989
IC50 [10]: > 10 µM

HT-1197 (bladder, adherent)
AUC [1]: 0.86
IC50 [1]: > 20 µM
AUC [2]: 0.873
IC50 [2]: > 0.0125 µM
AUC [3]: 0.885
IC50 [3]: > 2.56 µM
AUC [4]: 0.957
IC50 [4]: > 0.128 µM
AUC [5]: 0.923
IC50 [5]: > 1.02 µM
AUC [6]: 0.978
IC50 [6]: > 2 µM
AUC [7]: 0.036
IC50 [7]: < 0.02 µM
AUC [8, 12]: 0.982
IC50 [8, 12]: > 1 µM
AUC [8, 13]: 0.569
IC50 [8, 13]: 0.255 µM
AUC [9]: 0.429
IC50 [9]: 0.768 µM
AUC [10]: 0.973
IC50 [10]: > 10 µM

KYSE-450 (oesophagus, adherent)
AUC [1]: 0.915
IC50 [1]: > 20 µM
AUC [2]: 0.598
AUC [3]: 0.985
IC50 [3]: > 2.56 µM
AUC [4]: 0.586
IC50 [4]: 0.0135 µM
AUC [5]: 0.978
IC50 [5]: > 1.02 µM
AUC [6]: 0.984
IC50 [6]: > 2 µM
AUC [7]: 0.038
IC50 [7]: < 0.02 µM
AUC [8, 12]: 0.981
IC50 [8, 12]: > 1 µM
AUC [8, 13]: 0.575
IC50 [8, 13]: 0.254 µM
AUC [9]: 0.439
IC50 [9]: 0.861 µM
AUC [10]: 0.953
IC50 [10]: > 10 µM

LN-229 (glioma, adherent)
AUC [1]: 0.983
IC50 [1]: > 20 µM
AUC [2]: 0.682
IC50 [2]: 0.00251 µM
AUC [3]: 0.975
IC50 [3]: > 2.56 µM
AUC [4]: 0.971
IC50 [4]: > 0.128 µM
AUC [5]: 0.98
IC50 [5]: > 1.02 µM
AUC [11]: 0.873
IC50 [11]: 9.56 µM
AUC [6]: 0.972
IC50 [6]: > 2 µM
AUC [7]: 0.206
IC50 [7]: 0.0437 µM
AUC [8, 12]: 0.986
IC50 [8, 12]: > 1 µM
AUC [8, 13]: 0.812
IC50 [8, 13]: 1.37 µM
AUC [10]: 0.979
IC50 [10]: > 10 µM

LNZTA3WT4 (glioma, adherent)
AUC [1]: 0.981
IC50 [1]: > 20 µM
AUC [2]: 0.826
IC50 [2]: 0.00735 µM
AUC [3]: 0.983
IC50 [3]: > 2.56 µM
AUC [4]: 0.964
IC50 [4]: > 0.128 µM
AUC [5]: 0.983
IC50 [5]: > 1.02 µM
AUC [11]: 0.928
IC50 [11]: > 10 µM
AUC [6]: 0.959
IC50 [6]: > 2 µM
AUC [7]: 0.864
IC50 [7]: 4.33 µM
AUC [8, 12]: 0.876
IC50 [8, 12]: 0.964 µM
AUC [8, 13]: 0.745
IC50 [8, 13]: 0.792 µM
AUC [10]: 0.987
IC50 [10]: > 10 µM

LS-180 (large intestine, adherent)
AUC [1]: 0.878
IC50 [1]: > 20 µM
AUC [2]: 0.908
IC50 [2]: > 0.0125 µM
AUC [3]: 0.913
IC50 [3]: > 2.56 µM
AUC [4]: 0.868
IC50 [4]: > 0.128 µM
AUC [5]: 0.982
IC50 [5]: > 1.02 µM
AUC [11]: 0.879
IC50 [11]: > 10 µM
AUC [6]: 0.976
IC50 [6]: > 2 µM
AUC [7]: 0.19
IC50 [7]: 0.0322 µM
AUC [8, 12]: 0.983
IC50 [8, 12]: > 1 µM
AUC [8, 13]: 0.648
IC50 [8, 13]: 0.439 µM
AUC [10]: 0.976
IC50 [10]: > 10 µM
